From article PMC6919601, “Identification of Plasmodium dipeptidyl aminopeptidase allosteric inhibitors by high throughput screening” (PLoS ONE, 2019)
The whole screen tested about 110,000 compounds, of which about 230 (0.21%) showed an effect of 50% or more. The list shows a part of the results.

Target: DPAP1 (Plasmodium falciparum, UniProt Q8IIJ9)
Test: primary screen, percent inhibition; read by cleavage of a fluorogenic dipeptide substrate; higher = more effect of the substance
Set-up: species or system P. falciparum D10 trophozoite lysates; single well
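Also: 30 min substrate incubation versus DMSO and 10 µM JCP410 controls.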

Sequence of DPAP1 (Q8IIJ9 whole entry, looked up): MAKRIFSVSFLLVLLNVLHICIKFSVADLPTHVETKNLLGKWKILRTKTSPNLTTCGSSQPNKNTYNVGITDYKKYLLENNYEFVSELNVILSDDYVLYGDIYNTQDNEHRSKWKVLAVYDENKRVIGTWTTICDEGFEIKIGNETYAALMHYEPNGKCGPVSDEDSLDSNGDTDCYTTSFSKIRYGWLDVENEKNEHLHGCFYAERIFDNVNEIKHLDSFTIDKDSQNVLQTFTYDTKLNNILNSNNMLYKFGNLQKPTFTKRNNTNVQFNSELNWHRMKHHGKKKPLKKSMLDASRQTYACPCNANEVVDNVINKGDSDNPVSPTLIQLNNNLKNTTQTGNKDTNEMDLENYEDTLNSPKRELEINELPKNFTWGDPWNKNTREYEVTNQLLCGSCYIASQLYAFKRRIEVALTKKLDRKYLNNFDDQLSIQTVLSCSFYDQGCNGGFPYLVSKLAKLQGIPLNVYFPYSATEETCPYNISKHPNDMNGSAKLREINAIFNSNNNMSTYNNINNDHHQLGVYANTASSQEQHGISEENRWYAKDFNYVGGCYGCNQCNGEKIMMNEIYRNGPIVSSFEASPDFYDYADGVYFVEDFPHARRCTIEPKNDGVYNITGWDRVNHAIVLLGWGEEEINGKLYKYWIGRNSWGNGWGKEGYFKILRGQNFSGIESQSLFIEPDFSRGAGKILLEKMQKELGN

SMILES | % Inhibition @ 10 uM
CC(C)C[C@H](NC(=O)OCc1ccccc1)C(=O)NC(C#N)c1cccs1 (some centres unmarked) | -1.83%
Cc1ccc(C2C=C(c3ccc(Cl)cc3)Nc3nc(N4C(=O)C5CC=CCC5C4=O)nn32)cc1 (centres unmarked) | -2.9%
O=C(Nc1ccon1)C(Sc1ccccc1)c1ccccc1 (centres unmarked) | 3.53%
CC(C)Oc1ccc(C(=O)Nc2ccccc2Cl)cc1 | -0.545%
CC(CC12CC3CC(CC(C3)C1)C2)NC(=O)C1CCN(c2ncnc3c2nc2n3CCCCC2)CC1 (centres unmarked) | -2.71%
Clc1ccc(N2CCN(Cc3ccc(-c4ccccc4)cc3)CC2)cc1 | -3.77%
COc1cc2c(cc1OC)C(COc1ccccc1OC)N(C(=O)Cc1ccc(F)cc1)CC2 (centres unmarked) | -3.38%
O=C1C2C3CCC(C3)C2C(=O)N1Cc1ccccc1 (centres unmarked) | 4.37%
Cc1ccc(OCC(O)CN2CCN(Cc3ccc4c(c3)OCO4)CC2)c(C)c1 (centres unmarked) | -6.36%
COc1ccc(S(=O)(=O)NC2=NC(=O)/C(=C\c3cccnc3)S2)cc1 | 25.7%
CCCCNC(=O)CCn1nc(-c2ccccc2)ccc1=O | -0.0542%
CCC(CC)NC(=O)c1csc2c1CCCC2 | -10.4%
Cn1c(=O)[nH]c(=O)c2c1nc(N1CCNCC1)n2Cc1ccccc1Cl | -9.66%
COc1ccc(OC)c(/C=C2/SC(=O)NC2=O)c1 | 24.6%
COc1ccc(CCNc2ncnc3sc4c(c23)CCC4)cc1OC | -3.97%
CCOc1ccc2nc(NC(=O)c3[nH]c(C)c(C(C)=O)c3C)sc2c1 | 5.88%
CCN(Cc1ccccc1)C(=O)CSc1nc2ncccc2o1 | 3.14%
CC1(C)CC(NC(=O)c2ccco2)CC(C)(C)N1 | 2.86%
CNS(=O)(=O)c1cnccc1N1CCN(c2cccc(C(F)(F)F)c2)CC1 | -3.92%
O=C1NC(=O)C(=Cc2ccc(N3CCOCC3)c([N+](=O)[O-])c2)C(=O)N1 | 2.76%
CCC(Sc1ccc2ccccc2n1)C(=O)O (centres unmarked) | 4.74%
CCc1c(CO)csc1C | 2.3%
CN(c1cccc(NS(=O)(=O)c2ccc(F)cc2)c1)S(C)(=O)=O | -1.02%
CC(=O)OC(C)(C)C#CCN1CCN(C)CC1 | 4.61%
CC(C)NC(=O)c1ccc(-c2ccccc2)s1 | 4.4%
Cc1ccc2nc(O)c3cc(C(=O)N4CCC(C)CC4)sc3c2c1 | 1.08%
Oc1cccc(CN2CCN(c3ccccn3)CC2)c1 | -1.07%
O=C(CN1C(=O)C2C3c4ccccc4C(c4ccccc43)C2C1=O)Nc1ccccc1O (centres unmarked) | 6.24%
Nc1ccccc1Nc1nc(N2CCCCC2)nc(N(c2ccccc2)c2ccccc2)n1 | 0.00178%
